These results are taken from the supplement of paper PMC4604168 (melanoma cell lines).

The list shows a part of the results. Single values are uncertain, as repeats are few or missing.

Holding throughout (test): cell count relative to DMSO control; melanoma cells; higher = more viable cells
Holding throughout (conditions): library dose: low library concentration; 72 h

Assay [1] relates to COLO792.
The test system of assay [2] is COLO800.
The subject of assay [3] is COLO829.
Assay [4] deals with G361.
The test system of assay [5] is IPC-298.
Assay [6] deals with IST-MEL1.
Assay [7] has as its system LB2518-MEL.
Assay [8] deals with LOXIMVI.
The subject of assay [9] is MEL-HO.
Assay [10] concerns MZ2-MEL.
Assay [11] deals with MeWo.
Assay [12] concerns RPMI7951.
Assay [13] deals with RVH-421.
For assay [14], the system named is SkMel28.
For assay [15], the system named is SkMel2.
Assay [16] deals with SkMel30.
Assay [17] deals with SkMel5.
In assay [18] the test system is UACC257.
Assay [19] has as its system UACC62.
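Also: cell number obtained by counting DAPI-stained nuclei in high-throughput microscope images with image analysis software, screen run in 1,536-well plates.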

As to `Cn1cc(C2=C(c3cn(C4CCN(Cc5ccccn5)CC4)c4ccccc34)C(=O)NC2=O)c2ccccc21` [Enzastaurin] + O=C(Nc1ccccc1)c1cc([N+](=O)[O-])ccc1Cl [GW9662] (first compound 0.8 µM, partner dose 2 µM), the cell count is 102% in assay [1]; 126% in [2]; 107% in assay [3]; 94.2% in assay [4]; 106% in assay [5]; 104% in assay [6]. Moreover, the cell count came to 96.6% in assay [7]; 52.8% in assay [8]; 81% in [9]; 94% in assay [10]; 116% in assay [11]; 94.2% in assay [12]. The cell count was 96.7% in assay [13]; 93.6% in assay [14]; 90.6% in assay [15]; 90.2% in assay [16]; 99.6% in assay [17]; 91.9% in [18]. Moreover, the cell count in assay [19] was found to be 106%.
`C[C@]12O[C@H](C[C@]1(O)CO)n1c3ccccc3c3c4c(c5c6ccccc6n2c5c31)CNC4=O` [Lestaurtinib] + C[C@@H]1CCN(C(=O)CC#N)C[C@@H]1N(C)c1ncnc2[nH]ccc12 [CP690550] (first compound 0.004 µM, partner dose 1 µM): the cell count in [1] was determined as 89.6%; in [2] it was 106%; in assay [3], 112%; in [4] it was 115%; in assay [5] it was 94.1%; in assay [6], 102%. Further, the cell count was 94.8% in [7]; 132% in assay [8]; 89% in assay [9]; 102% in assay [10]; 92.7% in assay [11]; 133% in assay [12]. The cell count is 103% in [13]; 106% in assay [14]; 80.2% in assay [16]; 96.7% in [17]; 94% in [18]; 106% in assay [19].
In the case of `Cn1cc(C2=C(c3cn(C4CCN(Cc5ccccn5)CC4)c4ccccc34)C(=O)NC2=O)c2ccccc21` [Enzastaurin] + CCCCCCCCCCCC1=C(O)C(=O)C=C(O)C1=O [Embelin] (first compound 0.8 µM, partner dose 1.2 µM), the cell count in [1] amounted to 93.6%; in [2], 117%; in assay [3] it was 119%; in assay [4] it was 90%; in assay [5], 104%; in assay [6] it was 97%. In addition, the cell count in assay [7] turned out to be 111%; in assay [8], 75.8%; in [9] it was 107%; in [10], 94.3%; in [11], 123%; in assay [12], 94.5%. The cell count turned out to be 81.2% in [13]; 105% in assay [14]; 97.1% in assay [15]; 98.8% in assay [16]; 95.8% in [17]; 105% in [18]. In assay [19], this compound showed a cell count of 112%.
In the case of `C[As](C)SC[C@H](NC(=O)CC[C@H](N)C(=O)O)C(=O)NCC(=O)O` [Darinaparsin] + C=CCn1c(=O)c2cnc(Nc3ccc(N4CCN(C)CC4)cc3)nc2n1-c1cccc(C(C)(C)O)n1 [MK1775] (first compound 0.4 µM, partner dose 0.02 µM), the cell count worked out at 98% in [1]; 90.8% in assay [2]; 96.7% in assay [3]; 97.1% in assay [4]; 96.2% in assay [5]; 96.3% in [6]. The cell count in assay [7] is 85%; in [8] it was 120%; in [9], 99.9%; in assay [10], 104%; in assay [11], 91.5%; in assay [12], 97.9%. The cell count in assay [13] is 86.7%; in [14] it was 93%; in assay [15] it was 88.1%; in assay [16], 74%; in assay [17] it was 65.9%; in assay [18] it was 62.9%. The cell count in assay [19] was 72.7%.
As to `C[As](C)SC[C@H](NC(=O)CC[C@H](N)C(=O)O)C(=O)NCC(=O)O` [Darinaparsin] + NCC(=O)Nc1ccc(-n2nc(C(F)(F)F)cc2-c2ccc3c(ccc4ccccc43)c2)cc1 [OSU03012] (first compound 0.4 µM, partner dose 1 µM), the cell count in [1] amounted to 89.4%; in [2], 76.6%; in assay [3], 93.6%; in assay [4] it was 112%; in assay [5] it was 93.2%; in [6], 100%. Also, the cell count in assay [7] was 107%; in assay [8] it was 109%; in [9] it was 93.3%; in [10], 104%; in [11] it was 62.6%; in [12], 93.8%. Moreover, the cell count in assay [13] came out at 108%; in assay [14] it was 102%; in assay [15] it was 91.6%; in [16], 44.8%; in assay [17], 91.5%; in assay [18], 111%. The compound further displayed a cell count in [19] of 87.5%.
